Laboratory results: the supplement of paper PMC4604168 (melanoma cell lines)
The other results are listed elsewhere or left out. Repeats are few or missing, and single values can be far off.

Key:
Test in all cases: cell count relative to DMSO control; melanoma cells; higher = more viable cells
Details in all cases: library dose: standard library concentration; 72 h
SkMel28 = tested on: SkMel28
SkMel2 = tested on: SkMel2
SkMel30 = tested on: SkMel30
SkMel5 = tested on: SkMel5
UACC257 = tested on: UACC257
UACC62 = tested on: UACC62
WM115 = tested on: WM115
WM1716 = tested on: WM1716
WM1745 = tested on: WM1745
WM3526 = tested on: WM3526
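Further: cells treated in 1,536-well plates, then fixed and DAPI-stained, with nuclei counted from automated high-throughput microscope images.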

SMILES	cell count (SkMel28) [%]	cell count (SkMel2) [%]	cell count (SkMel30) [%]	cell count (SkMel5) [%]	cell count (UACC257) [%]	cell count (UACC62) [%]	cell count (WM115) [%]	cell count (WM1716) [%]	cell count (WM1745) [%]	cell count (WM3526) [%]
CNC(=O)c1cc(Oc2ccc(NC(=O)Nc3ccc(Cl)c(C(F)(F)F)c3)cc2)ccn1 [sorafenib] + CC(=O)c1c(C)c2cnc(Nc3ccc(N4CCNCC4)cn3)nc2n(C2CCCC2)c1=O [palbociclib] (first compound 2 µM, partner dose 0.2 µM)	50	65.4	73.5	70.8	87.8	79.5	52.9	48.1	72.3	69.8
C=CCNC1=C2C[C@@H](C)C[C@H](OC)[C@H](O)[C@@H](C)/C=C(\C)[C@H](OC(N)=O)[C@@H](OC)/C=C\C=C(/C)C(=O)NC(=CC1=O)C2=O [Tanespimycin] + CN(C)S(=O)(=O)c1ccc2c(c1)/C(=C/c1cc3c([nH]1)CCCC3)C(=O)N2 [SU6656] (first compound 0.01 µM, partner dose 2 µM)	49.9	72	69.1	56.4	82	49.4	25.5	49.8	51.2	71.5
C=CCNC1=C2C[C@@H](C)C[C@H](OC)[C@H](O)[C@@H](C)/C=C(\C)[C@H](OC(N)=O)[C@@H](OC)/C=C\C=C(/C)C(=O)NC(=CC1=O)C2=O [Tanespimycin] + Cc1cc(N2CCOCC2)cc2[nH]c(-c3c(NC[C@@H](O)c4cccc(Cl)c4)cc[nH]c3=O)nc12 [BMS536924] (first compound 0.01 µM, partner dose 1 µM)	59.7	76.1	80	65.9	82.2	79.9	25.6	84.3	49.3	70
C=CCNC1=C2C[C@@H](C)C[C@H](OC)[C@H](O)[C@@H](C)/C=C(\C)[C@H](OC(N)=O)[C@@H](OC)/C=C\C=C(/C)C(=O)NC(=CC1=O)C2=O [Tanespimycin] + OCCn1cc(-c2cnc3nnn(Cc4ccc5ncccc5c4)c3n2)cn1 [PF04217903] (first compound 0.01 µM, partner dose 5 µM)	79.4	83	111	66	84.6	67.3	28.8	73.5	75.9	63.6
CN1CCN(c2ccc3nc(-c4c(N)c5c(F)cccc5[nH]c4=O)[nH]c3c2)CC1 [Dovitinib] + C[C@@H]1CCN(C(=O)CC#N)C[C@@H]1N(C)c1ncnc2[nH]ccc12 [CP690550] (first compound 0.5 µM, partner dose 5 µM)	52.2	50	79.3	61.2	74.3	78.3	60.2	71.5	31.8	73.4
CN1CCN(c2ccc3nc(-c4c(N)c5c(F)cccc5[nH]c4=O)[nH]c3c2)CC1 [Dovitinib] + O=C(CCCCCCC(=O)Nc1ccccc1)NO [vorinostat] (first compound 0.5 µM, partner dose 0.4 µM)	59	53.6	88.4	64.1	56.7	73.5	56.2	79.3	53.3	64.5
CN1CCN(c2ccc3nc(-c4c(N)c5c(F)cccc5[nH]c4=O)[nH]c3c2)CC1 [Dovitinib] + COc1cc(Nc2ncc(F)c(Nc3ccc4c(n3)NC(=O)C(C)(C)O4)n2)cc(OC)c1OC [Tamatinib] (first compound 0.5 µM, partner dose 2 µM)	56.9	45.2	83.5	41.4	73.2	79.3	70	64.1	26.3	67.4
C=CCNC1=C2C[C@@H](C)C[C@H](OC)[C@H](O)[C@@H](C)/C=C(\C)[C@H](OC(N)=O)[C@@H](OC)/C=C\C=C(/C)C(=O)NC(=CC1=O)C2=O [Tanespimycin] + O=C(Nc1cccc(Cl)c1)Nc1ncc(CCNc2ncnc3ccsc23)s1 [SNS314] (first compound 0.01 µM, partner dose 0.004 µM)	25.8	69.7	82.8	70.5	81.9	65.1	24.7	53.2	61.8	63.6
CNC(=O)c1cc(Oc2ccc(NC(=O)Nc3ccc(Cl)c(C(F)(F)F)c3)cc2)ccn1 [sorafenib] + NC(=O)Nc1cc(-c2cccc(F)c2)sc1C(=O)N[C@H]1CCCNC1 [AZD7762] (first compound 2 µM, partner dose 0.1 µM)	56.3	79.1	64.1	87.2	78.1	59	84.2	69.1	66.5	48.7
C[C@@H](Oc1cc(-c2cnn(C3CCNCC3)c2)cnc1N)c1c(Cl)ccc(F)c1Cl [Crizotinib] + Nc1ncn([C@H]2C[C@H](O)[C@@H](CO)O2)c(=O)n1 [decitabine] (first compound 1 µM, partner dose 0.5 µM)	70.7	91.5	77.7	66.7	85.7	55.3	65.5	81.6	73.2	82.1
C=CCNC1=C2C[C@@H](C)C[C@H](OC)[C@H](O)[C@@H](C)/C=C(\C)[C@H](OC(N)=O)[C@@H](OC)/C=C\C=C(/C)C(=O)NC(=CC1=O)C2=O [Tanespimycin] + O=C(O)c1ccc(-c2c[nH]c3ncc(-c4ccccc4)cc23)cc1C1CCCC1 [GSK650394] (first compound 0.01 µM, partner dose 0.8 µM)	28.9	53.6	99.2	61.5	80.7	53.5	18.7	62.1	50	74
CS(=O)(=O)CCNCc1ccc(-c2ccc3ncnc(Nc4ccc(OCc5cccc(F)c5)c(Cl)c4)c3c2)o1 [lapatinib] + O=C(CCCCCCC(=O)Nc1ccccc1)NO [vorinostat] (first compound 4 µM, partner dose 0.4 µM)	51.6	61.3	58.1	62.8	75.5	62	83.3	84.8	75.5	65.5
CN1CCN(c2ccc3nc(-c4c(N)c5c(F)cccc5[nH]c4=O)[nH]c3c2)CC1 [Dovitinib] + CN(NC(=O)CC(=O)NN(C)C(=S)c1ccccc1)C(=S)c1ccccc1 [STA4783] (first compound 0.5 µM, partner dose 0.03 µM)	33	44.2	73.5	54.6	82.3	51.8	24	67.9	25.3	78.1
C[C@@H](Oc1cc(-c2cnn(C3CCNCC3)c2)cnc1N)c1c(Cl)ccc(F)c1Cl [Crizotinib] + CC(C)(C)c1cnc(CSc2cnc(NC(=O)C3CCNCC3)s2)o1 [SNS-032] (first compound 1 µM, partner dose 0.05 µM)	49.8	72	91.9	66.8	72.7	81.6	50	64.7	69.9	86.6
C[C@@H](Oc1cc(-c2cnn(C3CCNCC3)c2)cnc1N)c1c(Cl)ccc(F)c1Cl [Crizotinib] + Cc1nc(Nc2ncc(C(=O)Nc3c(C)cccc3Cl)s2)cc(N2CCN(CCO)CC2)n1 [dasatanib] (first compound 1 µM, partner dose 0.02 µM)	47	81.5	97.1	43.3	61.6	55.8	45.2	45.6	23	71.7
C=CCNC1=C2C[C@@H](C)C[C@H](OC)[C@H](O)[C@@H](C)/C=C(\C)[C@H](OC(N)=O)[C@@H](OC)/C=C\C=C(/C)C(=O)NC(=CC1=O)C2=O [Tanespimycin] + CN(NC(=O)CC(=O)NN(C)C(=S)c1ccccc1)C(=S)c1ccccc1 [STA4783] (first compound 0.01 µM, partner dose 0.03 µM)	25.8	46.3	100	51.8	82.9	42.6	12.4	62.4	39.7	78.5
CNC(=O)c1cc(Oc2ccc(NC(=O)Nc3ccc(Cl)c(C(F)(F)F)c3)cc2)ccn1 [sorafenib] + Cn1cncc1[C@@](N)(c1ccc(Cl)cc1)c1ccc2c(c1)c(-c1cccc(Cl)c1)cc(=O)n2C [tipifarnib] (first compound 2 µM, partner dose 0.05 µM)	82.6	79.1	104	85.5	90.5	59.8	80.8	84.9	89.9	80.2
CN1CCN(c2ccc3nc(-c4c(N)c5c(F)cccc5[nH]c4=O)[nH]c3c2)CC1 [Dovitinib] + CC(C)(C)c1cnc(CSc2cnc(NC(=O)C3CCNCC3)s2)o1 [SNS-032] (first compound 0.5 µM, partner dose 0.05 µM)	56.5	61.5	85.4	55.5	86.4	75.6	62.7	86.8	67.8	86.4
CS(=O)(=O)CCNCc1ccc(-c2ccc3ncnc(Nc4ccc(OCc5cccc(F)c5)c(Cl)c4)c3c2)o1 [lapatinib] + COc1cc(Nc2ncc(F)c(Nc3ccc4c(n3)NC(=O)C(C)(C)O4)n2)cc(OC)c1OC [Tamatinib] (first compound 4 µM, partner dose 2 µM)	60.3	66.5	71.6	35.9	77.2	41.6	79.3	46.9	31.7	49.4
CN1CCN(c2ccc3nc(-c4c(N)c5c(F)cccc5[nH]c4=O)[nH]c3c2)CC1 [Dovitinib] + NC(=O)Nc1cc(-c2cccc(F)c2)sc1C(=O)N[C@H]1CCCNC1 [AZD7762] (first compound 0.5 µM, partner dose 0.1 µM)	27.8	53.6	92.9	75.8	93.6	65.5	59.8	77.8	48.5	50.7
C[C@@H](Oc1cc(-c2cnn(C3CCNCC3)c2)cnc1N)c1c(Cl)ccc(F)c1Cl [Crizotinib] + COc1ccc(Cl)c(Nc2nc3ccccc3nc2NS(=O)(=O)c2cccc(NC(=O)C(C)(C)N)c2)c1 [XL147] (first compound 1 µM, partner dose 4 µM)	72.5	82.7	104	81.1	72.7	89.1	73.7	89.6	61.2	84.4
